# Data taken from the supplement of paper PMC8728848.
# The list shows a part of the results.
# How the values were obtained:
# Experiment in all cases: glycan array binding signal (z-score within array); higher = stronger binding
# Conditions in all cases: glycan notation: IUPAC condensed, linker removed
# [1] = target: Fuc(a1-2)Gal(b1-4)GlcNAc(b1-3)Gal(b1-4)GlcNAc(b1-3)Gal(b1-4)GlcNAc
# How it was run: (§1)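 From the Consortium for Functional Glycomics database, 3228 arrays were curated, keeping only those whose protein sequence was available. Binding is given as a within-array Z-score averaged across arrays sharing a protein sequence and across linkers. Negative Z-scores can be read as non-binding.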
# [2] = target: Fuc(a1-2)Gal(b1-4)GlcNAc(b1-3)GalNAc
# How it was run: as §1
# [3] = target: Fuc(a1-2)Gal(b1-4)GlcNAc(b1-3)[Fuc(a1-2)Gal(b1-4)GlcNAc(b1-6)]GalNAc
# How it was run: as §1
# [4] = target: Fuc(a1-2)Gal(b1-4)GlcNAc(b1-6)GalNAc
# How it was run: as §1
# [5] = target: Fuc(a1-2)Gal(b1-4)GlcNAc6S
# How it was run: as §1
# [6] = target: Fuc(a1-2)Gal(b1-4)[Fuc(a1-3)]GlcNAc
# How it was run: as §1
# [7] = target: Fuc(a1-2)Gal(b1-4)[Fuc(a1-3)]GlcNAc(b1-2)Man(a1-3)[Fuc(a1-2)Gal(b1-4)[Fuc(a1-3)]GlcNAc(b1-2)Man(a1-6)]Man(b1-4)GlcNAc(b1-4)GlcNAc
# How it was run: as §1
# [8] = target: Fuc(a1-2)Gal(b1-4)[Fuc(a1-3)]GlcNAc(b1-2)Man(a1-6)[Fuc(a1-2)Gal(b1-4)[Fuc(a1-3)]GlcNAc(b1-2)Man(a1-3)]Man(b1-4)GlcNAc(b1-4)[Fuc(a1-6)]GlcNAc
# How it was run: as §1
# [9] = target: Fuc(a1-2)Gal(b1-4)[Fuc(a1-3)]GlcNAc(b1-2)[Fuc(a1-2)Gal(b1-4)[Fuc(a1-3)]GlcNAc(b1-4)]Man(a1-3)[Fuc(a1-2)Gal(b1-4)[Fuc(a1-3)]GlcNAc(b1-2)Man(a1-6)]Man(b1-4)GlcNAc(b1-4)GlcNAc
# How it was run: as §1
# [10] = target: Fuc(a1-2)Gal(b1-4)[Fuc(a1-3)]GlcNAc(b1-3)Gal(b1-4)[Fuc(a1-3)]GlcNAc
# How it was run: as §1
# [11] = target: Fuc(a1-2)Gal(b1-4)[Fuc(a1-3)]GlcNAc(b1-3)Gal(b1-4)[Fuc(a1-3)]GlcNAc(b1-3)Gal(b1-4)[Fuc(a1-3)]GlcNAc
# How it was run: as §1
# [12] = target: Fuc(a1-2)Gal(b1-4)[Fuc(a1-3)]GlcNAc(b1-3)GalNAc
# How it was run: as §1
# [13] = target: Fuc(a1-2)Gal(b1-4)[Fuc(a1-3)]GlcNAc(b1-3)[Neu5Ac(a2-6)Gal(b1-4)GlcNAc(b1-6)]Gal(b1-4)Glc
# How it was run: as §1
# [14] = target: Fuc(a1-2)Gal6S(b1-3)GlcNAc
# How it was run: as §1
# [15] = target: Fuc(a1-2)Gal6S(b1-3)GlcNAc6S
# How it was run: as §1
# [16] = target: Fuc(a1-2)Gal6S(b1-4)Glc
# How it was run: as §1
# [17] = target: Fuc(a1-2)Gal6S(b1-4)Glc6S
# How it was run: as §1
# [18] = target: Fuc(a1-2)Gal6S(b1-4)GlcNAc
# How it was run: as §1
# [19] = target: Fuc(a1-2)[Gal(a1-3)]Gal
# How it was run: as §1
# [20] = target: Fuc(a1-2)[Gal(a1-3)]Gal(b1-3)GalNAc
# How it was run: as §1
# [21] = target: Fuc(a1-2)[Gal(a1-3)]Gal(b1-3)GlcNAc
# How it was run: as §1
# [22] = target: Fuc(a1-2)[Gal(a1-3)]Gal(b1-3)GlcNAc(b1-2)Man(a1-3)[Fuc(a1-2)[Gal(a1-3)]Gal(b1-3)GlcNAc(b1-2)Man(a1-6)]Man(b1-4)GlcNAc(b1-4)GlcNAc
# How it was run: as §1
# [23] = target: Fuc(a1-2)[Gal(a1-3)]Gal(b1-3)GlcNAc(b1-2)Man(a1-3)[Fuc(a1-2)[Gal(a1-3)]Gal(b1-3)GlcNAc(b1-2)Man(a1-6)]Man(b1-4)GlcNAc(b1-4)[Fuc(a1-6)]GlcNAc
# How it was run: as §1
# [24] = target: Fuc(a1-2)[Gal(a1-3)]Gal(b1-3)GlcNAc(b1-3)GalNAc
# How it was run: as §1
# [25] = target: Fuc(a1-2)[Gal(a1-3)]Gal(b1-4)Glc
# How it was run: as §1
# [26] = target: Fuc(a1-2)[Gal(a1-3)]Gal(b1-4)GlcNAc
# How it was run: as §1
# [27] = target: Fuc(a1-2)[Gal(a1-3)]Gal(b1-4)GlcNAc(b1-2)Man(a1-3)[Fuc(a1-2)[Gal(a1-3)]Gal(b1-4)GlcNAc(b1-2)Man(a1-6)]Man(b1-4)GlcNAc(b1-4)GlcNAc
# How it was run: as §1
# [28] = target: Fuc(a1-2)[Gal(a1-3)]Gal(b1-4)GlcNAc(b1-2)Man(a1-3)[Fuc(a1-2)[Gal(a1-3)]Gal(b1-4)GlcNAc(b1-2)Man(a1-6)]Man(b1-4)GlcNAc(b1-4)[Fuc(a1-6)]GlcNAc
# How it was run: as §1
# [29] = target: Fuc(a1-2)[Gal(a1-3)]Gal(b1-4)GlcNAc(b1-3)GalNAc
# How it was run: as §1
# [30] = target: Fuc(a1-2)[Gal(a1-3)]Gal(b1-4)GlcNAc(b1-6)GalNAc
# How it was run: as §1
binder,measurement,setting,value
"CvGal1 (Crassostrea virginica), A7Y0I5 (protein) MTYQISKISQPFTSYIPNGLHIGKHLLLRGRVSYGTEAFAINLQQNPEPCNGEVAFHFNPRPGEQQCVRNSFDGGSWMDEERDQPHFPFDEGRSFTLRIEVAEEGFRTYVNGKPYVNFSHRLDLGNVHYLYLTEGAEFYDISYQDRYTLPYKSEIPQQMNVGKAVRIRGASQDNDGFSVNFACDPDNENCAFHFNPRPNEGVVVRNANLGGWGDEERDYEAEFPFHPYNYFDAMFICTDDKYLVHVNDKYFTEFNHRGGVDASSFFNIVGNLDIQDVEYFEPLEDDFVKTIPSGLVKGDVLIFRGFMKPGGDTFSINFMNGYSVEDDIAFHLNPRVGEGQVVMNCCMGGAWGDEEREDIPSPLADREPFEVKVVVKKNKFKVYVNGKKCMKFAARGNLEDIKGVNIKGEAYVYEVKLERKLEDSWEYLPGGFRVGGWVVVQAIPKKGSEGFAINFRTGSDEDSDIAFHFNPRLQENCTIRNSCAGGAWGGEERDQPDFPFEKKDTCEIAIQAQPDRFVTYVNGKRYIEFNHRLPLESITCVELTGRADFFEPKFF",glycan array binding signal (z-score),[1],1.69
same,glycan array binding signal (z-score),[2],-0.225
same,glycan array binding signal (z-score),[3],-0.265
same,glycan array binding signal (z-score),[4],-0.258
same,glycan array binding signal (z-score),[5],-0.258
same,glycan array binding signal (z-score),[6],-0.267
same,glycan array binding signal (z-score),[7],-0.229
same,glycan array binding signal (z-score),[8],-0.237
same,glycan array binding signal (z-score),[9],-0.188
same,glycan array binding signal (z-score),[10],-0.283
same,glycan array binding signal (z-score),[11],-0.265
same,glycan array binding signal (z-score),[12],-0.197
same,glycan array binding signal (z-score),[13],-0.244
same,glycan array binding signal (z-score),[14],-0.275
same,glycan array binding signal (z-score),[15],-0.213
same,glycan array binding signal (z-score),[16],-0.115
same,glycan array binding signal (z-score),[17],-0.259
same,glycan array binding signal (z-score),[18],-0.294
same,glycan array binding signal (z-score),[19],-0.261
same,glycan array binding signal (z-score),[20],-0.256
same,glycan array binding signal (z-score),[21],2.98
same,glycan array binding signal (z-score),[22],2.23
same,glycan array binding signal (z-score),[23],0.478
same,glycan array binding signal (z-score),[24],0.341
same,glycan array binding signal (z-score),[25],1.59
same,glycan array binding signal (z-score),[26],2.82
same,glycan array binding signal (z-score),[27],2.89
same,glycan array binding signal (z-score),[28],1.42
same,glycan array binding signal (z-score),[29],1.53
same,glycan array binding signal (z-score),[30],-0.283
